Data reported in the supplement of paper PMC11417369.
± gives the standard deviation of the averaged measurements. The list shows a part of the results.

system: PfAP2-I AP2 domain 3 (GST-tagged); assay: gcPBM binding intensity (ln(normalized median fluorescence intensity)); higher = stronger DNA binding
How it was run: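 DNA-binding domains from P. falciparum, fused to GST and produced in E. coli, were put on an Agilent 4 × 180k double-stranded probe array for 1 h in 1× PBS holding 1% milk, 0.2 mg/ml BSA, 0.5% salmon testes DNA and 0.03% Triton X-100. Probes were primer-extended, 36 bp long and drawn from intergenic genomic regions, with negative controls included. After Alexa488 anti-GST antibody detection and a 488 nm scan, binding intensity was set as the highest Masliner-normalised natural-log median intensity across replicate spots of either probe orientation.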

Sequence | gcPBM binding intensity (ln)
AAAAATTTATTTTTAGGTACACAATTGAATTATTTA [XGTACX_site7008] | 7.62 ± 0.15
CCACATTTTACAGACACACACAATTTATATTACGGT [CACACA_site1894] | 7.86 ± 0.46
ATTATAAATAAAATATGTACATATGTATAAATACAT [XGTACX_site4002] | 7.65 ± 0.34
AAAACACATACTATATGTACATATAATAATTTATAT [XGTACX_site4525] | 7.86 ± 0.44
AAGAAAAAAAAAAAAAAAAAAAAAAAAAAAAAAAAA [TGCATGCA_negctrl_site263] | 8.38 ± 0.89
TTCTGTATATAGTGTGCACACAATTAAAAAAAAAAA [CACACA_site8400] | 9.98 ± 0.27
TTGCACTCGTAAAAAGCACACATATAAAAACATTTA [CACACA_site7997] | 8.26 ± 0.071
TTAAAAATGTTATAATGTACATATAATATTTTATGA [XGTACX_site5954] | 7.66 ± 0.4
TATATATATATATATATATATATTTTTATTATATAT [XGTACX_negctrl_site89] | 9.2 ± 0.68
ATTATAAATATAAATATAAATATATATTGTTCCGCA [TGCATGCA_negctrl_site470] | 7.28 ± 0.5
TTTATCCTTCTTTTGAGTACTCAAAGAGACCTATAA [XGTACX_site8050] | 8.13 ± 0.35
AAAAAAAACAGACACACACACAAATATTTATATATC [CACACA_site6342] | 7.69 ± 0.55
TATATAATAACATATGCATGCAAGTAATATAACCAA [TGCATGCA_site324] | 8.72 ± 0.54
TATAATATATATGTAACACACAAAAGTTATATACTT [CACACA_site2868] | 7.54 ± 0.55
AAAAAAAATCAGACAGGTACACATTCCATGTTCAAA [XGTACX_site5380] | 7.38 ± 0.63
CATTAATATATATATAGTACATATACACCTTCATTA [XGTACX_site8473] | 7.8 ± 0.47
ATATATTATATTTAAGTGCATTAATTAAAATGCTTA [GTGCAC_site9403] | 11.1 ± 0.73
TAAGAATACGAAAGGTGTACACTGTGGAGACTTCAA [XGTACX_site2619] | 8.03 ± 0.59
AAAATAAATATAAAATGTACTTATATATATATATAT [XGTACX_site7803] | 9.24 ± 0.4
TATGAAGTGCACAATACACACTAATTCTATATAAAT [CACACA_site7269] | 11 ± 0.71
ATAATTAAATAAAAAAGTACACATACATCATAATGC [XGTACX_site7656] | 7.93 ± 0.42
CAATTAAAAAATAATACATGCATATAAATAGATATT [TGCATGCA_site427] | 7.72 ± 0.49

Sequence | gcPBM binding intensity (ln)
TTTTAATTAAATACAAAAAAAAAAAAAAAAAAAAAA [CACACA_negctrl_site1631] | 8.14 ± 0.91
TTTACACTTTTTTTTGTACACACTAATAAGATTAAC [CACACA_site9304] | 8.2 ± 0.39
AAAAAAATTTTTAAAAGTACATTAATATTAATATGT [XGTACX_site5177] | 7.84 ± 0.56
ACATTACAATTATTATAATCAATATATAACCTCTAA [TGCATGCA_negctrl_site105] | 7.88 ± 0.42
ATAAAATTATATACTCGTACACAAAAAAAAAAAATA [XGTACX_site6035] | 7.96 ± 0.23
AAATATATTTTTTTTTGTACTCAAAAAGAAAAAAAA [XGTACX_site8540] | 7.59 ± 0.43
AAAAATTGAATGATGTGTACTTAAAAGAATATAGAA [XGTACX_site6588] | 8.05 ± 0.51
AATTTTCATTTTAGAAGTACACACAAAAAATAAAAT [XGTACX_site4426] | 8.13 ± 0.22
ATTATATTTCAATTATGTACATATAAAATGAATAAA [XGTACX_site4204] | 7.78 ± 0.37
TTTTTTTTTTTTTTTTTTTTCTTCATTTAATTTATA [GTGCAC_negctrl_site17] | 8.1 ± 0.73
TTTTTTTATTATTATTGTACAAGGCCTTAGGTGATT [XGTACX_site5050] | 7.99 ± 0.46
TTTTCATGTTTTTTTCTTTATTTTTTTTTTTTTTTT [GTGCAC_negctrl_site511] | 8.3 ± 0.49
TACTTAATTATAAGGACATGCACAAAAGGAATTATT [TGCATGCA_site468] | 8.71 ± 0.72
ATATAATATAACAATACGCACACGTATACAAAAAAA [CACACA_site3151] | 8.36 ± 0.41
ATAAAATGCGCAAACACACACAAAAAAAAGATATAT [CACACA_site6875] | 8.06 ± 0.75
TTTTTAATTAATCTTATAAATATTTATAAATATATA [CACACA_negctrl_site1485] | 7.57 ± 0.53
ATGTAATCATTTTCGACTTTTTTTTTTTTTTTTTTT [CACACA_negctrl_site1132] | 9.19 ± 0.26
AGGAAATGTTTATATACATGCATAATTAAATATAAT [TGCATGCA_site672] | 7.76 ± 0.67
GTTGTAAAAAGAAAATGTACGTAATAAATATATATA [XGTACX_site3081] | 8.29 ± 0.64
AATAAAAAAAAAAATAATATATATGTATAAATATAT [CACACA_negctrl_site1561] | 7.39 ± 0.35
AATACTCCATTGTATAGTACATATATTTTTATTTAT [XGTACX_site3641] | 7.59 ± 0.53
